Consider 40 compounds from the antibiotic and cytotoxicity screens of Wong et al. (2023).

The list shows a part of the results.

The subject of the assay is S. aureus RN4220. Put plainly: growth inhibition call (relative growth <= 0.2). Particulars: 50 µM.
For the compound `CN1C[C@@H](O)COC[C@H]2O[C@@H](CC(=O)N3CCN(c4ccccc4)CC3)CC[C@@H]21`, the growth inhibition call was “inactive”.
As for `CN1CCN(C(=O)C[C@H]2C[C@@H]3c4cc(NC(=O)c5ccc6c(c5)OCO6)ccc4O[C@@H]3[C@H](CO)O2)CC1`, the entry is “inactive”.
As for `CCCCCCOc1ccccc1C(N)=O`, the entry is “inactive”; as for `C[C@@H]1CN([C@H](C)CO)S(=O)(=O)c2ccc(C3=CCCCC3)cc2O[C@@H]1CN(C)Cc1cncnc1`, “inactive”.
The same measure for `COc1ccc(CN2C[C@@H](C)[C@@H](OC)CN(C)C(=O)c3ccc(NC(=O)c4nc5ccccc5s4)cc3OC[C@H]2C)cc1`: “inactive”; for `C[C@@H]1CCCCO[C@@H](CN(C)C(=O)NC2CCCCC2)[C@@H](C)CN([C@@H](C)CO)C(=O)c2cc(NC(=O)Nc3ccccc3)ccc2O1`: “inactive”; for `C[C@@H]1CCCCO[C@@H](CN(C)C(=O)Nc2ccc(C(F)(F)F)cc2)[C@@H](C)CN([C@H](C)CO)C(=O)c2cc(NC(=O)Nc3ccc4c(c3)OCO4)ccc2O1`: “inactive”.
Take `Nc1nc2nc[nH]c2c(=S)[nH]1`: the growth inhibition call is “inactive”.
The same measure for `CC(C)NC(=O)N(C)C[C@H]1Oc2ccc(NC(=O)Cn3cnnn3)cc2C(=O)N([C@H](C)CO)C[C@@H]1C`: “inactive”.
`CN1C(=O)c2cc(NC(=O)c3ccc(F)c(F)c3)ccc2OC[C@@H]2O[C@@H](CC(=O)N3CCOCC3)CC[C@@H]21`: the growth inhibition call is “inactive”.
The same measure for `CCOC(=O)c1ccc(NC(=O)N[C@H]2O[C@@H](CO)[C@@H](O)[C@@H](O)[C@@H]2O)cc1`: “inactive”.
As for `C[C@@H]1CN([C@@H](C)CO)C(=O)Cc2cc(NC(=O)CCN3CCOCC3)ccc2O[C@@H]1CN(C)Cc1ccc(C(=O)O)cc1`, the entry is “inactive”; as for `O=S(=O)(Cc1ccccc1)Nc1ccc(-c2ccc3c(cnn3-c3ccc(F)cc3)c2)c(C(F)(F)F)c1`, “inactive”.
Consider `C[C@@H]1CCCCO[C@H](CN(C)C(=O)Nc2ccccc2)[C@@H](C)CN([C@H](C)CO)C(=O)c2cc(NC(=O)c3ccncc3)ccc2O1`, for which the growth inhibition call is “inactive”.
As for `C[C@@H]1CN([C@H](C)CO)C(=O)c2cc(NC(=O)Nc3ccc(C(F)(F)F)cc3)ccc2O[C@@H](C)CCCCO[C@H]1CN(C)Cc1ccc2c(c1)OCO2`, the entry is “inactive”; as for `O=C(C[C@@H]1C=C[C@@H](NC(=O)CN2CCOCC2)[C@H](CO)O1)NC1CCCCC1`, “inactive”.
On to `Cc1noc(C)c1NC(=O)N(C)C[C@@H]1Oc2ccc(NC(=O)Cn3cnnn3)cc2C(=O)N([C@@H](C)CO)C[C@H]1C`, for which the growth inhibition call is “inactive”.
The same measure for `COCC#Cc1ccc2c(c1)O[C@@H](CN(C)Cc1ccccc1F)[C@@H](C)CN([C@@H](C)CO)S2(=O)=O`: “inactive”; for `C[C@H](CO)N1C[C@H](C)[C@H](CN(C)C(=O)c2ccc3c(c2)OCO3)Oc2cc(-c3ccncc3)ccc2S1(=O)=O`: “inactive”; for `N#CC(c1ccccc1)(c1ccccc1)c1ccccc1Cl`: “inactive”.
As for `C[C@@H]1CN([C@@H](C)CO)C(=O)Cc2cc(NC(=O)CCCCCC(=O)Nc3ccccc3N)ccc2O[C@H]1CN(C)Cc1ccccc1`, the entry is “inactive”.
The same measure for `CCCNC(=O)N1C[C@]2(CCN(CC2)C(=O)Cc2cccnc2)c2c([nH]c3cc(ccc23)OC)[C@@H]1CO`: “inactive”; for `C[C@]1(C(=O)NCCN2CCOCC2)c2ccccc2C(=O)N(Cc2cc(C(F)(F)F)cc(C(F)(F)F)c2)[C@H]1c1ccc(CO)cc1`: “inactive”.
Take `C[C@H](CO)N1C[C@H](C)[C@@H](CN(C)C(=O)Nc2ccc(-c3ccccc3)cc2)OCc2ccccc2-c2ccccc2C1=O`: the growth inhibition call was “inactive”.
As for `O=C(O[C@@H]1Cc2c(O)cc(O)cc2O[C@@H]1c1cc(O)c(O)c2c(=O)c(O)cc([C@H]3Oc4cc(O)cc(O)c4C[C@H]3O)c-2c1)c1cc(O)c(O)c(O)c1`, the entry is “inactive”; as for `CC(C)NC(=O)Nc1ccc2c(c1)C(=O)N([C@@H](C)CO)C[C@H](C)[C@@H](CN(C)C(=O)C1CCCCC1)OCCCC[C@H](C)O2`, “inactive”; as for `C[C@@H]1CN([C@@H](C)CO)C(=O)c2cccc(NC(=O)Nc3ccc(C(F)(F)F)cc3)c2O[C@@H]1CN(C)Cc1ccc2c(c1)OCO2`, “inactive”.
Turning to `C[C@H]1CN([C@@H](C)CO)C(=O)Cc2cc(NS(C)(=O)=O)ccc2O[C@H]1CN(C)Cc1ccc2c(c1)OCO2`, the growth inhibition call is “inactive”.
The same measure for `C[C@@H]1CN([C@@H](C)CO)C(=O)Cc2cc(NC(=O)CCCCCC(=O)Nc3ccccc3N)ccc2O[C@@H]1CN(C)Cc1ccc(-c2ccccc2)cc1`: “inactive”; for `O=C(NCCN1CCCC1)[C@H]1[C@H](CO)[C@H]2Cn3c(cccc3=O)[C@@H]1N2C(=O)c1ccccc1`: “inactive”; for `CC(C)NC(=O)N[C@@H]1C=C[C@H](CC(=O)O)O[C@H]1CO`: “inactive”.
The same measure for `CO[C@@H](C(=O)N(C)C[C@@H]1OCc2ccccc2-c2c(n(C)c3ccccc23)C(=O)N([C@@H](C)CO)C[C@@H]1C)c1ccccc1`: “inactive”.
As for `CN(C)CCCOc1nn(Cc2ccccc2)c2ccccc12.Cl`, the growth inhibition call was “inactive”.
Regarding `O=C(c1cccs1)N1c2ccccc2Sc2ccccc21`, the growth inhibition call is “inactive”.
As for `C[C@H]1CN([C@@H](C)CO)C(=O)c2cc(NC(=O)C3CC3)ccc2O[C@@H]1CN(C)Cc1ccc2c(c1)OCO2`, the growth inhibition call was “inactive”.
For `Cc1ccc(S(=O)(=O)Nc2cccc3c2O[C@@H](CN(C)S(C)(=O)=O)[C@@H](C)CN([C@H](C)CO)C3=O)cc1`, the growth inhibition call was “inactive”.
For `COc1cc(CN2C(=O)[C@@H]3[C@H]4C(=O)O[C@@H](c5ccccc5)[C@H](C)N(C)C(=O)CC/C=C\CN(Cc5ccccc5)C(=O)[C@H]2[C@]32C=C[C@@H]4O2)ccc1O[SiH](C(C)C)C(C)C`, the growth inhibition call was “inactive”.
Turning to `O=C(O)C=CC(=O)O.OCCOCCN1CCN(C2=Nc3ccccc3Sc3ccccc32)CC1`, the growth inhibition call was “inactive”.
Regarding `C[C@@H]1CCCCO[C@@H](CN(C)Cc2ccc(C(=O)O)cc2)[C@@H](C)CN([C@@H](C)CO)C(=O)c2cc(NS(=O)(=O)c3ccccc3)ccc2O1`, the growth inhibition call was “inactive”.
In the case of `NCCOc1ccccc1Cc1ccccc1`, the growth inhibition call is “inactive”.
